In PubChem BioAssay AID1745853 (National Center for Advancing Translational Sciences (NCATS), 2022):
“And” between values parts separate entries of the source, which are not always exact repeats. Identical values can stand only once. Some of the results follow. Further columns of the screen follow, without active or inactive calls.

What was measured:
Assay in all cases: Primary Screen for Target Class Profiling of Small Molecule Inhibitors of Methyltransferases
[1] = biological target: Glycine N-methyltransferase (Homo sapiens) (UniProt Q14749); settings: purified enzyme, MTase-Glo SAH luminescence; measured here: GNMT inhibition; at 40 µM; stronger effect = lower value
Summary of the method: (§1)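 Each enzyme was reacted with SAM and its substrate, with compounds tested once at 40 uM; SAH formed was read by MTase-Glo luminescence.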

[2] = biological target: Guanidinoacetate N-methyltransferase (Homo sapiens) (UniProt Q14353); settings: purified enzyme, MTase-Glo SAH luminescence; measured here: GAMT inhibition; at 40 µM; stronger effect = lower value
Summary of the method: as §1

[3] = biological target: Histamine N-methyltransferase (Homo sapiens) (UniProt P50135); settings: purified enzyme, MTase-Glo SAH luminescence; measured here: HNMT inhibition; at 40 µM; stronger effect = lower value
Summary of the method: as §1

[4] = biological target: Nicotinamide N-methyltransferase (Homo sapiens) (UniProt P40261); settings: purified enzyme, MTase-Glo SAH luminescence; measured here: NNMT inhibition; at 40 µM; stronger effect = lower value
Summary of the method: as §1

[5] = biological target: Phenylethanolamine N-methyltransferase (Homo sapiens) (UniProt P11086); settings: purified enzyme, MTase-Glo SAH luminescence; measured here: PNMT inhibition; at 40 µM; stronger effect = lower value
Summary of the method: as §1
% is set by controls: 0 for no effect and ±100 for the full control effect.

COc1ccc(NC(=O)N2CCn3cccc3C2C)cc1 (stereo not given)
activity change, negative = inhibition [1]: -7.32% | activity change, negative = inhibition [2]: -0.652% | activity change, negative = inhibition [3]: -7.15% | activity change, negative = inhibition [4]: -12.5% | activity change, negative = inhibition [5]: -6.46%

COc1cccc(CNC(=O)CCc2nnc3n(CCC(C)C)c(=O)c4ccccc4n23)c1
activity change, negative = inhibition [1]: -7.51% | activity change, negative = inhibition [2]: 0.227% | activity change, negative = inhibition [3]: 5.61% | activity change, negative = inhibition [4]: -16.6% | activity change, negative = inhibition [5]: -0.678%

CCOC(=O)c1cc2n(n1)CC(C)(C(=O)NCCC(C)C)N(Cc1cccc(C)c1)C2=O (stereo not given)
activity change, negative = inhibition [1]: -4.54% | activity change, negative = inhibition [2]: 3.62% | activity change, negative = inhibition [3]: -1.77% | activity change, negative = inhibition [4]: -5.92% | activity change, negative = inhibition [5]: -1.71%

Cc1ccc(CNC(=O)C2(C)Cn3nc(C(=O)NCc4cccc(C)c4)cc3C(=O)N2C)cc1 (stereo not given)
activity change, negative = inhibition [1]: -0.566% | activity change, negative = inhibition [2]: 4.93% | activity change, negative = inhibition [3]: 0.891% | activity change, negative = inhibition [4]: 2.56% | activity change, negative = inhibition [5]: 2.28%

c1cc2c(cc1-c1n[nH]c(C3CCOCC3)n1)OCO2
activity change, negative = inhibition [1]: -4.48% | activity change, negative = inhibition [2]: -3.71% | activity change, negative = inhibition [3]: -1.76% | activity change, negative = inhibition [4]: -11.6% | activity change, negative = inhibition [5]: -5.46%

C=CCOc1cccc(-c2nnc(CCC(=O)NC(C)CC)c(=O)[nH]2)c1 (stereo not given)
activity change, negative = inhibition [1]: -9.34% | activity change, negative = inhibition [2]: -3.45% | activity change, negative = inhibition [3]: 0.092% | activity change, negative = inhibition [4]: -1.73% | activity change, negative = inhibition [5]: 0.325%

COc1ccccc1CCN1C(=O)c2cc3ccccc3n2CC1(C)C(=O)NCCC(C)C (stereo not given)
activity change, negative = inhibition [1]: -0.643% | activity change, negative = inhibition [2]: 1.18% | activity change, negative = inhibition [3]: -0.419% | activity change, negative = inhibition [4]: -9.46% | activity change, negative = inhibition [5]: -2.71%

COc1ccc(NC(=O)CCc2nnc3n(Cc4ccccc4)c(=O)c4ccccc4n23)cc1
activity change, negative = inhibition [1]: -11.1% | activity change, negative = inhibition [2]: 4.51% | activity change, negative = inhibition [3]: -3.81% | activity change, negative = inhibition [4]: 1.81% | activity change, negative = inhibition [5]: -4.36%

CC1(C(=O)NC2CCCCCC2)Cn2c(cc3sccc32)C(=O)N1Cc1ccccc1F (stereo not given)
activity change, negative = inhibition [1]: 0.418% | activity change, negative = inhibition [2]: 2.34% | activity change, negative = inhibition [3]: 6.45% | activity change, negative = inhibition [4]: 1.63% | activity change, negative = inhibition [5]: -0.835%

CCOc1ccccc1CN1C(=O)c2cc3occc3n2CC1(C)C(=O)NC1CCCCC1C (stereo not given)
activity change, negative = inhibition [1]: 3.3% | activity change, negative = inhibition [2]: 5.91% | activity change, negative = inhibition [3]: 6.05% | activity change, negative = inhibition [4]: -2.22% | activity change, negative = inhibition [5]: -1.49%

CCCn1c(=O)c2ccc(C(=O)NC(C)C)cc2n2c(SCC(=O)Nc3cccc(F)c3)nnc12
activity change, negative = inhibition [1]: 2.24% | activity change, negative = inhibition [2]: 4.52% | activity change, negative = inhibition [3]: 4.58% | activity change, negative = inhibition [4]: -2.4% | activity change, negative = inhibition [5]: -0.184%

CCN(CC)CCCC(C)Nc1c2ccc(Cl)cc2nc2ccc(OC)cc12 (stereo not given)
activity change, negative = inhibition [1]: 4.45% and -1.03% | activity change, negative = inhibition [2]: -4.81% and 10.1% | activity change, negative = inhibition [3]: -67.4% and -39.3% | activity change, negative = inhibition [4]: -24.7% and -13.8% | activity change, negative = inhibition [5]: -4.03% and -2.5%

COc1cccc(NC[C@@H](O)Cn2c3ccc(Br)cc3c3cc(Br)ccc32)c1
activity change, negative = inhibition [1]: 5.71% | activity change, negative = inhibition [2]: -29.4% | activity change, negative = inhibition [3]: 0.151% | activity change, negative = inhibition [4]: -39.6% | activity change, negative = inhibition [5]: -8.36%

COC(=O)CNC(=O)C1CCc2nnc(CNC(=O)NC(C)C)n21 (stereo not given)
activity change, negative = inhibition [1]: -2.01% | activity change, negative = inhibition [2]: -1.71% | activity change, negative = inhibition [3]: -1.55% | activity change, negative = inhibition [4]: -6.08% | activity change, negative = inhibition [5]: -17.3%

O=C(c1ccc[nH]1)N1CCC(n2cc(-c3nc(C4CC4)no3)nn2)C1 (stereo not given)
activity change, negative = inhibition [1]: -3.47% | activity change, negative = inhibition [2]: -1.95% | activity change, negative = inhibition [3]: 1.51% | activity change, negative = inhibition [4]: -6.07% | activity change, negative = inhibition [5]: -1.27%

CCc1cc(CN(C)C(=O)C(c2ccc(C)cc2)N(C)C)on1 (stereo not given)
activity change, negative = inhibition [1]: 1.35% | activity change, negative = inhibition [2]: -1.1% | activity change, negative = inhibition [3]: 1.29% | activity change, negative = inhibition [4]: -1.74% | activity change, negative = inhibition [5]: -1.26%

Cc1ccc(CNC(=O)C2(C)Cn3nc(C(=O)NCCc4ccco4)cc3C(=O)N2C)cc1 (stereo not given)
activity change, negative = inhibition [1]: 5.07% | activity change, negative = inhibition [2]: 0% | activity change, negative = inhibition [3]: 6.23% | activity change, negative = inhibition [4]: 3.24% | activity change, negative = inhibition [5]: 2.99%

CCCCc1nc2c3ccccc3n(CC(=O)N3CCN(c4ccc(F)cc4)CC3)c(=O)n2n1
activity change, negative = inhibition [1]: 17% | activity change, negative = inhibition [2]: 0% | activity change, negative = inhibition [3]: 13.8% | activity change, negative = inhibition [4]: 5.38% | activity change, negative = inhibition [5]: -0.846%

C[C@@]12CCC(=O)C[C@@H]1C[C@H](OC(=O)Nc1ccccc1)CC2
activity change, negative = inhibition [1]: -7.85% | activity change, negative = inhibition [2]: -12% | activity change, negative = inhibition [3]: -3.6% | activity change, negative = inhibition [4]: -20% | activity change, negative = inhibition [5]: -17.1%

Cc1cccc(N2C(=O)c3cc4occc4n3CC2(C)C(=O)NC2CCCCC2)c1C (stereo not given)
activity change, negative = inhibition [1]: 2.59% | activity change, negative = inhibition [2]: -3.25% | activity change, negative = inhibition [3]: 6.88% | activity change, negative = inhibition [4]: 11.5% | activity change, negative = inhibition [5]: -0.252%

COCCn1cnnc1CNc1cc(-c2ccncc2)nc2ccnn12
activity change, negative = inhibition [1]: -2.76% | activity change, negative = inhibition [2]: 2.36% | activity change, negative = inhibition [3]: -2.83% | activity change, negative = inhibition [4]: -4.31% | activity change, negative = inhibition [5]: 11.7%

O=C1CC(c2cn[nH]c2C(=O)O)c2c(n[nH]c2-c2cccs2)N1 (stereo not given)
activity change, negative = inhibition [1]: -7.78% | activity change, negative = inhibition [2]: -9.64% | activity change, negative = inhibition [3]: -2.97% | activity change, negative = inhibition [4]: -5.47% | activity change, negative = inhibition [5]: 6.32%

O=C(NCC1CCN(c2cc(-c3ccccc3)[nH]n2)CC1)c1ccc2nc[nH]c2c1
activity change, negative = inhibition [1]: -13.1% | activity change, negative = inhibition [2]: -3.06% | activity change, negative = inhibition [3]: -6.01% | activity change, negative = inhibition [4]: -8.4% | activity change, negative = inhibition [5]: -5.64%

CN(C)CC(=O)N1CCC(c2ccc(NC(=O)c3ncc(C#N)[nH]3)c(C3=CCCCC3)c2)CC1
activity change, negative = inhibition [1]: -3.2% | activity change, negative = inhibition [2]: -1.56% | activity change, negative = inhibition [3]: -0.057% | activity change, negative = inhibition [4]: -19.1% | activity change, negative = inhibition [5]: -11.2%

Cc1cc(C)cc(NC(=S)N[C@H]2CO[C@H]3[C@@H]2OC[C@H]3OC(=O)NC2CCCCC2)c1
activity change, negative = inhibition [1]: -2.77% | activity change, negative = inhibition [2]: -1.23% | activity change, negative = inhibition [3]: -4.38% | activity change, negative = inhibition [4]: -9.26% | activity change, negative = inhibition [5]: -3.75%

C=CC(C)(O)CC/C=C(\C)C1CC=C(C)C(=O)O1 (stereo not given)
activity change, negative = inhibition [1]: 0.677% | activity change, negative = inhibition [2]: -4.39% | activity change, negative = inhibition [3]: 6.68% | activity change, negative = inhibition [4]: -20% | activity change, negative = inhibition [5]: 1.74%

CCOCCCN1C(=O)c2cc3ccc(OC)cc3n2CC1(C)C(=O)NC1CCCCC1 (stereo not given)
activity change, negative = inhibition [1]: -1.57% | activity change, negative = inhibition [2]: 3.67% | activity change, negative = inhibition [3]: -0.61% | activity change, negative = inhibition [4]: 1.57% | activity change, negative = inhibition [5]: -1.84%

CC(C)c1ccc(CO)cc1O[C@@H]1O[C@H](CO)[C@@H](O)[C@H](O)[C@H]1O
activity change, negative = inhibition [1]: 0% | activity change, negative = inhibition [2]: 8.2% | activity change, negative = inhibition [3]: 12.7% | activity change, negative = inhibition [4]: -2.83% | activity change, negative = inhibition [5]: 4.95%

CC(C)CNC(=O)c1ccc2c(=O)n(C(C)C)c3nn(CC(=O)Nc4cccc(F)c4)c(=O)n3c2c1
activity change, negative = inhibition [1]: 0.778% | activity change, negative = inhibition [2]: 0% | activity change, negative = inhibition [3]: 1.19% | activity change, negative = inhibition [4]: -2.52% | activity change, negative = inhibition [5]: 1.44%

COc1cccc(CSc2nnc3n(Cc4ccccc4)c(=O)c4ccc(C(=O)NC(C)C)cc4n23)c1
activity change, negative = inhibition [1]: 3.57% | activity change, negative = inhibition [2]: 4.32% | activity change, negative = inhibition [3]: 8.22% | activity change, negative = inhibition [4]: -0.746% | activity change, negative = inhibition [5]: 4.53%
